The source gives many values for each of these; only a part stands here.
Assay: Biodistribution of 18F-labelled tracers in rats
Type: in vivo
Settings: corrected for decay of 18F
Protocol: [^18F]Fluoride, in the form of H^18F, was produced by the ^18O(p,n)^18F nuclear reaction by bombardment of ^18O-enriched water target. The aqueous [^18F]fluoride solution was added to a 2.5-mL wheaton vial containing dry acetonitrile (1 mL), Kryptofix 2.2.2 (5 mg, 13.3 μmol) and potassium carbonate (2 mg, 14.5 μmol). The solvent was evaporated under a stream of nitrogen at 90° C. with a reducing vacuum. This azeotropic drying was repeated twice by further addition of acetonitrile (2×1 mL). The tosylate precursor 2-(2-(4-(2-tosylethoxy)phenyl)-6-chloroimidazo[1,2-a]pyridin-3-yl)-N,N-diethylacetamide (2 mg, 3.6 μmol) was dissolved in acetonitrile (1 ml) and added to the dried K222.K2CO3.KF complex. Stirring and heating at 90° C. continued for 10 to 15 mins before the reaction mixture was diluted with mobile phase and purified by reverse phase HPLC on an Alltech Alltima, C18, 10μ, 250×22 mm column eluting at 10 mLs/min with 45% acetonitrile, 55% water with 0.1% TFA.
The biodistribution of PBR132* was undertaken in SD rats and analysis up to 4 h p.i. in the brain and peripheral tissues was performed. The specificity and selectivity of the tracer were assessed by pre-treatment with PBR and Central benzodiazepine receptor (CBR) specific ligands (1 mg/kg) 5 min prior to injection of PBR132*.
The biodistribution of PBR 147* was performed in SD rats and brain and peripheral tissues were analysised at 15, 30 min, 1, and 4 h p.i. The specificity and selectivity of the tracer was assessed by pre-treatment of the animals with the PBR ligands PK11195 and Ro 5-4864 and with Flumazenil for CBR at 1 mg/kg 5 min prior to injection of PBR 147*
The biodistribution of PBR102* and PBR111* were performed in SD rats and brain and peripheral tissues analysed at 15, 30 min, 1, and 4 h p.i. The specificity and selectivity of the tracers were assessed by pre-treatment with the PBR ligands PK11195 and Ro 5-4864 and with Flumazenil for CBR at 1 mg/kg 5 min prior to injection of the corresponding tracers.
The specificity and selectivity of the tracers were assessed by pre-treatment with the PBR ligands PK11195 and Ro 5-4864 and with Flumazenil for CBR at 1 mg/kg 5 min prior to injection of the corresponding tracers.

CCN(CC)C(=O)Cc1c(-c2ccc(OCCCF)cc2)nc2ccc(Cl)cn12 [PBR111, 2-(2-(4-(3-fluoropropoxy)phenyl)-6-chloroimidazo[1,2-a]pyridin-3-yl)-N,N-diethylacetamide]
Biodistribution: Adrenals (15 min): 6.26 ± 0.94 % ID/g | Biodistribution: Bladder (15 min): 0.60 ± 0.28 % ID/g | Biodistribution: Blood (15 min): 0.41 ± 0.08 % ID/g | Biodistribution: Brain (15 min): 0.27 ± 0.04 % ID/g | Biodistribution: GIT (15 min): 1.05 ± 0.08 % ID/g | Biodistribution: Kidney (15 min): 4.56 ± 0.34 % ID/g | Biodistribution: Liver (15 min): 1.37 ± 0.20 % ID/g | Biodistribution: Muscle (15 min): 0.61 ± 0.16 % ID/g | Biodistribution: Olfactory bulbs (15 min): 0.64 ± 0.10 % ID/g | Biodistribution: Pancreas (15 min): 1.99 ± 0.18 % ID/g | Biodistribution: Spleen (15 min): 7.25 ± 1.57 % ID/g | Biodistribution: Stomach (15 min): 0.82 ± 0.20 % ID/g | Biodistribution: Testes (15 min): 0.29 ± 0.03 % ID/g | Biodistribution: Thymus (15 min): 0.91 ± 0.17 % ID/g | Biodistribution: Thyroid (15 min): 9.82 ± 0.74 % ID/g | Biodistribution: Adrenals (30 min): 6.49 ± 0.93 % ID/g | Biodistribution: Bladder (30 min): 0.68 ± 0.08 % ID/g | Biodistribution: Blood (30 min): 0.30 ± 0.06 % ID/g | Biodistribution: Brain (30 min): 0.17 ± 0.02 % ID/g | Biodistribution: GIT (30 min): 1.22 ± 0.20 % ID/g | Biodistribution: Kidney (30 min): 4.34 ± 0.52 % ID/g | Biodistribution: Liver (30 min): 0.86 ± 0.17 % ID/g | Biodistribution: Muscle (30 min): 0.57 ± 0.10 % ID/g | Biodistribution: Olfactory bulbs (30 min): 0.54 ± 0.07 % ID/g | Biodistribution: Pancreas (30 min): 1.28 ± 0.12 % ID/g | Biodistribution: Spleen (30 min): 5.98 ± 0.63 % ID/g | Biodistribution: Stomach (30 min): 1.06 ± 0.23 % ID/g | Biodistribution: Testes (30 min): 0.33 ± 0.03 % ID/g | Biodistribution: Thymus (30 min): 1.10 ± 0.35 % ID/g | Biodistribution: Thyroid (30 min): 10.33 ± 0.99 % ID/g | Biodistribution: Adrenals (60 min): 9.23 ± 1.25 % ID/g | Biodistribution: Bladder (60 min): 1.01 ± 0.28 % ID/g | Biodistribution: Blood (60 min): 0.18 ± 0.04 % ID/g | Biodistribution: Brain (60 min): 0.13 ± 0.01 % ID/g | Biodistribution: GIT (60 min): 1.54 ± 0.19 % ID/g | Biodistribution: Heart (60 min): 6.72 ± 0.80 % ID/g | Biodistribution: Kidney (60 min): 4.11 ± 0.66 % ID/g | Biodistribution: Liver (60 min): 0.65 ± 0.09 % ID/g | Biodistribution: Muscle (60 min): 0.44 ± 0.04 % ID/g | Biodistribution: Olfactory bulbs (60 min): 0.54 ± 0.10 % ID/g | Biodistribution: Pancreas (60 min): 0.92 ± 0.10 % ID/g | Biodistribution: Spleen (60 min): 5.27 ± 0.85 % ID/g | Biodistribution: Stomach (60 min): 0.78 ± 0.12 % ID/g | Biodistribution: Testes (60 min): 0.40 ± 0.01 % ID/g | Biodistribution: Thymus (60 min): 1.12 ± 0.21 % ID/g | Biodistribution: Thyroid (60 min): 10.72 ± 2.14 % ID/g | Biodistribution: Adrenals (4 hours): 16.46 ± 0.97 % ID/g | Biodistribution: Bladder (4 hours): 1.20 ± 0.23 % ID/g | Biodistribution: Blood (4 hours): 0.11 ± 0.01 % ID/g | Biodistribution: Brain (4 hours): 0.08 ± 0.01 % ID/g | Biodistribution: GIT (4 hours): 1.77 ± 0.12 % ID/g | Biodistribution: Heart (4 hours): 4.38 ± 0.42 % ID/g | Biodistribution: Kidney (4 hours): 2.32 ± 0.37 % ID/g | Biodistribution: Liver (4 hours): 0.39 ± 0.06 % ID/g | Biodistribution: Muscle (4 hours): 0.17 ± 0.05 % ID/g | Biodistribution: Olfactory bulbs (4 hours): 0.41 ± 0.04 % ID/g | Biodistribution: Pancreas (4 hours): 0.53 ± 0.09 % ID/g | Biodistribution: Spleen (4 hours): 3.12 ± 0.37 % ID/g | Biodistribution: Stomach (4 hours): 0.45 ± 0.06 % ID/g | Biodistribution: Testes (4 hours): 0.57 ± 0.03 % ID/g | Biodistribution: Thymus (4 hours): 1.65 ± 0.41 % ID/g | Biodistribution: Thyroid (4 hours): 8.25 ± 1.10 % ID/g
